Experimental findings from the supplement of paper PMC3334620 are described below.

The full ranking holds about 33,000 sequences; the median of “E-score (-0.5 to 0.5)” is about -0.011, and the highest 2% start at about 0.28. This is one part of the list.

This assay has as its target T1, Gcr1 (UniProt P07261).
T1 sequence: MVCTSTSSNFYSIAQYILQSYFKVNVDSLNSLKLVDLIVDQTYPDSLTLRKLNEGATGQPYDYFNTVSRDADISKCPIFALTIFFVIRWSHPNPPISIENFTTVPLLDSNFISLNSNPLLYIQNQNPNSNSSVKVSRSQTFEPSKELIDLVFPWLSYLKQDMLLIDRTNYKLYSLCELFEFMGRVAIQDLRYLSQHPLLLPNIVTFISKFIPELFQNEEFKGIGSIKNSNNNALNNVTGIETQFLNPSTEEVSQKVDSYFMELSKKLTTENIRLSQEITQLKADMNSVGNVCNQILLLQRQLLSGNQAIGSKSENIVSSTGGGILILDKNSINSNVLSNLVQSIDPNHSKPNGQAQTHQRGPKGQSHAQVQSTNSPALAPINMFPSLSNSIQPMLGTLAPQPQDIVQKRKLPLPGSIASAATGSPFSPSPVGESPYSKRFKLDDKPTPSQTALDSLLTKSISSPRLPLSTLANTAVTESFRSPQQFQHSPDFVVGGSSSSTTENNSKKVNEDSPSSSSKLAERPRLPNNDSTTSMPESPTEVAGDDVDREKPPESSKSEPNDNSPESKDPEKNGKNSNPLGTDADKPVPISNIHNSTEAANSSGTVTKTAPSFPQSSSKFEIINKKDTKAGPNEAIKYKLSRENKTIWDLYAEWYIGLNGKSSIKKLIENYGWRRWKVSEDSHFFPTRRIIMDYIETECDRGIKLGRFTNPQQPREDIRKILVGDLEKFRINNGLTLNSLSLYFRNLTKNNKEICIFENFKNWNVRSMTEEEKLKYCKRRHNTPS
Description: PBM E-score (8-mer binding enrichment) (E-score (-0.5 to 0.5)); higher = stronger / more preferred TF binding; most listed sequences are background and not binding sites. As to conditions: protein concentration: 100 nM; construct: GST-full length. An outline of the steps:
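E-scores (a modified Wilcoxon-Mann-Whitney statistic) were assigned by the Universal PBM Analysis Suite to every ungapped eight-base word pooled with its reverse complement. The input came from universal all-10-mer Agilent arrays made double-stranded by primer extension and probed with GST-tagged yeast transcription factors at about 100-200 nM. Fluorescent anti-GST detected bound protein, and masliner normalised the scans.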
On to CGGTCACA, for which the “PBM E-score” value was -0.00572.

As to ACAAAACG, the “PBM E-score” value was -0.0227. The value for AATAGTGT was 0.125; that for GAGGTAGC was 0.0843. On to TGCGGTAA, for which the “PBM E-score” value was -0.097. Take CCTATGCC: the “PBM E-score” value is -0.248.

Consider CACGGCCA, for which the “PBM E-score” value was -0.0297. The value for CCAGCAAG was -0.241. Turning to GGAGGGGA, the “PBM E-score” value was determined as 0.204.

GCCAACAA: the “PBM E-score” value turned out to be 0.0652. The value for GAGAACTA was -0.0722. In the case of CACCCAAG it was 0.0733. Regarding TCATAGCA, the “PBM E-score” value was -0.0893. In the case of CAAGATCC it was 0.18. In the case of CTTGAATC it was -0.0608; in that of CTGGAGGA, 0.0832.

On to CCGACGAG, for which the “PBM E-score” value is -0.22. CGGGGCAG: the “PBM E-score” value is -0.0418. Turning to GATCCTGA, the “PBM E-score” value worked out at 0.0899. The value for CCGAGGGC was -0.309. In the case of CAGCATCC it was 0.447. On to GCCGGGAA, for which the “PBM E-score” value is -0.00974. In the case of AAACGACG it was 0.167; in that of AACCTAGG, -0.0399; in that of CGTGCTGA, -0.14. In the case of AGCCTTAC it was -0.135; in that of TACCCCCA, -0.142. In the case of GGTTAAAA it was 0.0973. ACACGTAA: the “PBM E-score” value is -0.0351. Take TGCCTTAA: the “PBM E-score” value was -0.0846. The value for CTACTACC was 0.048. The value for GTCGCCCA was 0.181.

Take ATATAGGG: the “PBM E-score” value was determined as 0.0698. With CACACTGA, the “PBM E-score” value was -0.137. The value for GTACAGAA was -0.125; that for CTCACGCC was -0.0721; that for AACCCGCC was -0.056. The value for GTGATGTA was -0.0573; that for GGGAGACC was -0.103; that for GAAAGGGC was -0.149.

As to AAGACAAG, the “PBM E-score” value amounted to 0.0261. The value for GCAAGTAC was -0.139; that for AATCGATC was -0.0532. The value for AGATGTGG was 0.0129; that for AGCATGAC was -0.286. CTGAGTCC: the “PBM E-score” value was -0.0288. In the case of CGTGGGTA it was -0.0417. In the case of CTTGTCAC, the “PBM E-score” value was -0.198. The value for AATTGTTC was 0.0249; that for TAGTCTAA was -0.0682; that for CCGAGCGC was -0.0224.

On to CCTAAACA, for which the “PBM E-score” value is 0.147. The value for ATATCCAA was 0.0262; that for GCAAGGCC was -0.31. The value for CGCTAACG was -0.18. In the case of TTCTCCAA it was 0.0271. Turning to CCCCTTAG, the “PBM E-score” value is -0.0705. The value for ACTAGTCG was 0.065; that for CGATTGCA was -0.103. As to ACTCTAAG, the “PBM E-score” value is -0.0197.

On to ATTCGTGC, for which the “PBM E-score” value came to 0.089.

CATCGAAG: the “PBM E-score” value is -0.186. With AATTCTGG, the “PBM E-score” value turned out to be 0.122. In the case of GATTCGTA it was 0.15; in that of AACAACCC, -0.0603; in that of CTGTCCTA, -0.0722. In the case of TCTCCAAA it was 0.114; in that of CGCTATCC, 0.0288; in that of AGGTCTAC, -0.166.

Consider GTATATTA, for which the “PBM E-score” value is 0.119.

In the case of ACTCATTC, the “PBM E-score” value was found to be 0.0285. The value for AAGTGCTG was 0.128; that for AATGTTGA was -0.0167. The value for TGATAGAA was 0.0528; that for GATTCTTA was 0.238; that for AAAGGCTT was -0.194. In the case of CCGGTACG it was -0.0393; in that of CTTCCACC, 0.0074. As for AGGAGTAA, the “PBM E-score” value was -0.283. GAGCTTAA: the “PBM E-score” value is -0.0131. On to ACTTATTA, for which the “PBM E-score” value is 0.27. On to CATAAGCG, for which the “PBM E-score” value is -0.234. Turning to ACCAGTTC, the “PBM E-score” value worked out at 0.121. In the case of CCTTGGCG it was -0.218; in that of CGAATAGA, 0.0207; in that of GCACTCGA, -0.117.
